Assay results: PubChem BioAssay AID995 (National Center for Advancing Translational Sciences (NCATS), 2007)
The whole screen tested about 72,000 compounds, of which about 710 (0.99%) were called active. Inconclusive means that the source gave no clear call. Such entries were picked first, then a sample of the others. Calls come from the whole dose curve; as a rule, active = well fitted inhibition curve with a large enough effect; inconclusive = small, poorly fitted or top-dose-only effect; inactive = no such curve, though single readings can be large or run the other way. Potencies of inconclusive entries are left out as doubtful fits.

assay: qHTS Assay for Inhibitors of the ERK Signaling Pathway using a Homogeneous Screening Assay; conditions: HEK293-V1b, vasopressin-stimulated pERK AlphaScreen; activity, negative = inhibition: at 57.5 µM (top of the series) unless noted; note: nearly all actives have a fitted effect of over 55% in size
Summary of the method: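 Overnight-seeded V1b-HEK293 cells in 1% FBS got compound, then vasopressin (25 nM final, 5 min, 37C), then lysis buffer. AlphaScreen detection of phospho-ERK; activity normalized to basal and full-stimulation controls.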
% is set by controls: 0 for no effect and ±100 for the full control effect; potency is the fitted concentration of half-maximal effect; tags give direction and shape of the fitted curve.

Compound | Potency | activity, negative = inhibition
O=C1OCCC1Sc1nnc(-c2ccccc2)o1 (stereo not given) | inconclusive [inhibitor, single point] | –
Cn1c(NCc2cc(Br)ccc2O)nc2ccccc21 | inconclusive [inhibitor, single point] | –
O=C(CCSc1nc(-c2ccco2)cc(C(F)(F)F)n1)N1CCN(c2ccccn2)CC1 | inconclusive [inhibitor, partial curve] | –
O=C(Cc1c(O)c2ccccc2[nH]c1=O)NCc1ccc(F)cc1 | inactive | –
O=C(c1ccco1)N1CCC2(CC1)CCN(C(c1ccccc1)c1ccccc1)CC2 | inconclusive [inhibitor, single point] | –
CCOc1ccccc1N(CC(=O)Nc1ccc(C)cc1)S(C)(=O)=O | inconclusive [inhibitor, partial curve] | –
Cc1nc2cncnc2n(Cc2ccccc2Cl)c1=O | inactive | –
CCc1nc(Nc2ccc3nccnc3c2)c2oc3ccccc3c2n1 | inconclusive [inhibitor, full curve] | –
COc1ccc2[nH]cc(CCNc3ccnc(-c4ccccc4Cl)n3)c2c1 | active: 39.8 µM | –
CCOc1ccc(-c2[nH]ncc2Oc2cccc(OC)c2)c(O)c1 | inconclusive [inhibitor, single point] | –
Cc1onc(-c2ccccc2Cl)c1C(=O)Nc1ccc(-c2cn3cccnc3n2)cc1 | inactive | –
O=C(NCc1cccc(Cl)c1)c1cnccn1 | – | inconclusive: -31.3% [inhibitor]
CCCc1cn(S(=O)(=O)c2ccc(OC)cc2OC)nc1N | inconclusive [inhibitor, single point] | –
Nc1ncnc2c1ncn2[C@H]1O[C@@H](C(=O)O)[C@@H](O)[C@H]1O | – | inactive: -5.69% [at 11.5 µM]
CN1CCC[C@H](C(=O)OCC(=O)[C@]2(O)CC[C@@H]3[C@H]4CCC5=CC(=O)CC[C@@]5(C)[C@H]4[C@@H](O)C[C@]32C)C1 | – | inactive: 3.71% [at 11.5 µM]
Nc1nccs1 | inactive | –
CCc1ccc2oc(-c3cc(N)ccc3O)nc2c1 | inactive | –
Cc1nc2ncnn2c(Nc2ccc3c(c2)OCO3)c1Cc1ccccc1 | active: 25.1 µM | –
Cc1cnc(CNc2cc(-c3cccc(NS(C)(=O)=O)c3)ncn2)cn1 | inactive | –
O=C(c1ccccc1Cl)N1CCC(c2nc3c(nnn3Cc3ccco3)c(=O)[nH]2)CC1 | inconclusive [inhibitor, single point] | –
NCCC(=O)N[C@@H](Cc1cnc[nH]1)C(=O)O | inactive | –
COc1ccc(C(=O)N2CCC3(CC2)CCN(c2cccc(-c4ccccc4)c2)CC3)cc1 | inconclusive [inhibitor, single point] | –
O=C(c1ccco1)[C@@H]1[C@@H]2C(=O)N(c3ccc(Br)cc3)C(=O)[C@@H]2C2c3ccccc3C=CN21 (stereo not given in full) | inactive | –
CCCN1C=CC(=C2C(=O)c3ccccc3C2=O)C=C1 | inactive | –

Compound | Potency | activity, negative = inhibition
O=C(CSC1CCCCC1)N1CCN(c2ccccc2)CC1 | inconclusive [inhibitor, partial curve] | –
N#Cc1nc(N2CCCC2)nc(N2CCCC2)n1 | inconclusive [inhibitor, full curve] | –
Cn1nc(-c2ccc(Cl)cc2)c2cc(C(=O)NC3CC3)sc21 | inconclusive [inhibitor, partial curve] | –
Cc1cccc(OCCCCCn2ccnc2)c1C | inconclusive [inhibitor, single point] | –
c1ccc2[nH]c(CSc3ncnc4c3oc3ccccc34)nc2c1 | inconclusive [inhibitor, single point] | –
COc1ccccc1Nc1nc(C2(C)CCC(=O)O2)cs1 (stereo not given) | inconclusive [inhibitor, full curve, poor fit] | –
CCOc1ccc(OCC)c2sc(C)nc12 | inconclusive [inhibitor, full curve] | –
C/C(=C\c1ccco1)C1C(C#N)=C(N)Oc2n[nH]c(-c3ccccc3)c21 (stereo not given) | – | inconclusive: -35.5% [inhibitor]
COCCCn1c(=S)[nH]c2ncccc2c1=O | inactive | –
CCOc1ccc(-c2nc(CSCC(=O)N3CCN(c4cccc(OC)c4)CC3)c(C)o2)cc1 | active: 12.6 µM | –
CCOC(=O)c1oc2cc(O)c(CC)cc2c(=O)c1-c1ccc2c(c1)OCCO2 | inconclusive [inhibitor, single point] | –
COc1cc(OC)c(-c2nnc(-c3ccc(OC)c(OC)c3OC)o2)cc1OC | inconclusive [inhibitor, partial curve] | –
C=CCN1C(=O)CS/C1=C(\C#N)S(=O)(=O)c1ccc(C)cc1 | inconclusive [inhibitor, single point] | –
Cc1cc(C)c(OCC(=O)Nc2cccc(NC(=O)c3ccco3)c2)c(Br)c1 | inconclusive [inhibitor, full curve] | –
O=S(=O)(c1cccc(-c2nnc(-c3cccnc3)o2)c1)N1CCCCC1 | inconclusive [inhibitor, partial curve, poor fit] | –
Cc1ccc(C)c(S(=O)(=O)C(C#N)c2nc3ccccc3nc2N2CCCC2)c1 (stereo not given) | inconclusive [inhibitor, single point] | –
CC(=O)C(C(C)=O)c1c(Cl)c(O)c(O)c2c(C(=O)c3ccccc3)coc12 | inconclusive [inhibitor, partial curve] | –
Cc1onc(-c2c(F)cccc2Cl)c1C(=O)Nc1nc2c(s1)CCCC2 | – | inconclusive: -30.9% [inhibitor]
COc1ccc(N2C(=O)CC(NCc3cccc(F)c3)C2=O)cc1 (stereo not given) | inconclusive [inhibitor, single point] | –
C/C(CCN1CCCc2nc(C)c(C)cc21)=N\O[C@@H](C)CN1CCCCc2nc(C)c(C)cc21 | – | inactive: 18% [at 11.5 µM]
CS(=O)(=O)N1CCC(C(=O)NCCC2=CCCCC2)CC1 | inactive | –
CCOc1ccc(NC(=O)Nc2ccc3nccnc3c2)cc1 | inactive | –
N#Cc1ccc(CN2CCCC3(CCN(C(=O)c4cccc(F)c4)CC3)C2)cc1 | inactive | –
COc1ccc(-c2[nH]nc3c2C(c2ccc(OC(=O)N4CCOCC4)cc2)C(C#N)=C(N)O3)cc1 (stereo not given) | inconclusive [inhibitor, partial curve] | –

Compound | Potency | activity, negative = inhibition
Fc1ccc(-c2nnc3sc(C4COc5ccccc5O4)nn23)cc1 (stereo not given) | inconclusive [inhibitor, single point] | –
Oc1ccc(CN2CCCc3ccccc32)c2cccnc12 | inconclusive [inhibitor, partial curve] | –
COc1cccc(-n2ccnc2SCC(=O)Nc2ccccc2)c1 | inactive | –
C=CCSc1nncn1/N=C/c1ccc(OC)cc1 | inactive | –
Cc1cccc(N2CC(C)Cn3c2nc2c3c(=O)n(CC(=O)OCc3ccccc3)c(=O)n2C)c1 (stereo not given) | inconclusive [inhibitor, partial curve] | –
COC1[C@H](OC(N)=O)C(O)[C@H](Oc2ccc3c(O)c(NC(=O)c4ccc(O)c(CC=C(C)C)c4)c(=O)oc3c2C)OC1(C)C (stereo not given in full) | inactive | –
CC(C)c1ccc(S(=O)(=O)N2CCN(C(=O)c3cccc(F)c3)CC2)cc1 | inactive | –
COc1cc2c(cc1OC)C(C(=O)N1CCOCC1)C(c1cccs1)N(C)C2=O (stereo not given) | inconclusive [inhibitor, partial curve] | –
CN(C)c1ccc(N/C=C/C(=O)c2ccccc2)cc1 | inconclusive [inhibitor, partial curve] | –
Cc1ccc(S(=O)(=O)N2CCCC(NC(=O)N3CCN(c4ccccc4)CC3)C2)cc1 (stereo not given) | inconclusive [inhibitor, partial curve] | –
CC(=O)Nc1cc(-c2nn(CC(=O)N3CCCCC3)c(=O)c3ccccc23)ccc1N1CCOCC1 | inactive | –
CCC(=O)n1nc(-c2cccnc2)nc1NCc1ccc(OC)cc1 | inconclusive [inhibitor, partial curve] | –
COc1ccc(CC(=O)Nc2nc(C)cs2)cc1OC | inconclusive [inhibitor, single point] | –
COCCn1c(=O)c(-c2ccc(Cl)cc2)nc2cnc(N3CCNCC3)nc21 | inactive | –
COc1ccc(S(=O)(=O)N(CCCN2CCCC2=O)Cc2cc3cc(C)c(C)cc3[nH]c2=O)cc1 | inconclusive [inhibitor, partial curve] | –
Clc1ccc(-n2ncc3c(NCc4ccc5c(c4)OCO5)ncnc32)cc1 | inconclusive [inhibitor, full curve, poor fit] | –
COc1cc(OC)c(C(=O)Nc2ccc(S(=O)(=O)Nc3ncccn3)cc2)cc1OC | inconclusive [inhibitor, partial curve] | –
O=C(Nc1ccc2c(c1)OCO2)C1CCN(C(=O)CSc2ncnc3ccccc23)CC1 | inconclusive [inhibitor, single point] | –
N#CCSc1nc2cc(C(=O)N3CCCC3)ccc2c(=O)n1Cc1ccccc1 | inconclusive [inhibitor, partial curve] | –
COc1cc(-c2nnc(CSc3nc4ccccc4s3)o2)cc(OC)c1OC | inconclusive [inhibitor, partial curve] | –
COc1ccc(OCC(=O)N(C)Cc2ccccc2)cc1 | inconclusive [inhibitor, partial curve] | –
Cc1ccc(C(=O)CSc2nc3ccccc3c(=O)n2N)o1 | inconclusive [inhibitor, partial curve] | –
